# Reference: the supplement of paper PMC4604168 (melanoma cell lines)
# The list shows a part of the results. Repeats are few or missing, and single values can be far off.
# What was measured:
# Test in all cases: cell count relative to DMSO control; melanoma cells; higher = more viable cells
# Details in all cases: library dose: low library concentration; 72 h
# [1] = test system: MZ2-MEL
# [2] = test system: MeWo
# [3] = test system: RPMI7951
# [4] = test system: RVH-421
# [5] = test system: SkMel28
# [6] = test system: SkMel2
# [7] = test system: SkMel30
# [8] = test system: UACC62
# [9] = test system: WM115
# [10] = test system: WM1716
# [11] = test system: WM1745
# [12] = test system: WM3526
# [13] = test system: WM3619
# [14] = test system: WM451Lu
# 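Further: cell number obtained by counting DAPI-stained nuclei in high-throughput microscope images with image analysis software, screen run in 1,536-well plates.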
Structure (SMILES),cell count [1] [%],cell count [2] [%],cell count [3] [%],cell count [4] [%],cell count [5] [%],cell count [6] [%],cell count [7] [%],cell count [8] [%],cell count [9] [%],cell count [10] [%],cell count [11] [%],cell count [12] [%],cell count [13] [%],cell count [14] [%]
"C=C(c1ccc(C(=O)O)cc1)c1cc2c(cc1C)C(C)(C)CCC2(C)C [Bexarotene] + C#Cc1cccc(Nc2ncnc3cc(OCCOC)c(OCCOC)cc23)c1 [erlotinib] (first compound 2 µM, partner dose 0.8 µM)",99.5,84.7,74.5,83.8,75.8,89.8,91.6,85.8,94.7,87.5,83.2,79.5,83.2,78.4
"C=C(c1ccc(C(=O)O)cc1)c1cc2c(cc1C)C(C)(C)CCC2(C)C [Bexarotene] + C=CCNC1=C2C[C@@H](C)C[C@H](OC)[C@H](O)[C@@H](C)/C=C(\C)[C@H](OC(N)=O)[C@@H](OC)/C=C\C=C(/C)C(=O)NC(=CC1=O)C2=O [Tanespimycin] (first compound 2 µM, partner dose 0.002 µM)",97.6,94.1,83.3,98.2,75.3,81.6,113,91.5,96,98.3,104,80.3,118,87
"CN(c1ncccc1CNc1nc(Nc2ccc3c(c2)CC(=O)N3)ncc1C(F)(F)F)S(C)(=O)=O + C[C@@H](Oc1cc(-c2cnn(C3CCNCC3)c2)cnc1N)c1c(Cl)ccc(F)c1Cl [Crizotinib] (first compound 0.08 µM, partner dose 0.2 µM)",92.7,102,88.7,124,88.9,83.7,105,80.2,85.7,91.8,82.3,98.4,111,84.2
"CN(c1ncccc1CNc1nc(Nc2ccc3c(c2)CC(=O)N3)ncc1C(F)(F)F)S(C)(=O)=O + O=C(O)[C@@H]1[O][Sb](=[O])([O][Sb]2(=[O])[O][C@H]([C@H](O)CO)[C@H](O)[C@H](C(=O)O)[O]2)[O][C@H]([C@H](O)CO)[C@@H]1O [stibogluconate] (first compound 0.08 µM, partner dose 2 µM)",91.1,96.2,89.6,114,93.2,94.1,99.3,109,82,98.5,82.2,96.4,111,89.6
"CS(=O)(=O)c1ccc(C(=O)Nc2ccc(Cl)c(-c3ccccn3)c2)c(Cl)c1 [vismodegib] + CN1CCN(c2ccc3nc(-c4c(N)c5c(F)cccc5[nH]c4=O)[nH]c3c2)CC1 [Dovitinib] (first compound 1 µM, partner dose 0.1 µM)",87.5,86.4,94.7,107,109,104,82.1,86.2,110,106,114,108,93.4,89.8
"CS(=O)(=O)c1ccc(C(=O)Nc2ccc(Cl)c(-c3ccccn3)c2)c(Cl)c1 [vismodegib] + Nc1ncn([C@H]2C[C@H](O)[C@@H](CO)O2)c(=O)n1 [decitabine] (first compound 1 µM, partner dose 0.1 µM)",92,87.8,87.4,74.5,85.4,105,92.4,72.8,82.8,93.6,86.5,109,102,91.7
"CCCS(=O)(=O)Nc1ccc(F)c(C(=O)c2c[nH]c3ncc(Cl)cc23)c1F + Clc1ccc(Nc2nnc(Cc3ccncc3)c3ccccc23)cc1 [vatalanib] (first compound 0.08 µM, partner dose 2 µM)",86.3,69,91.7,79.1,66.9,103,103,57.6,90.2,119,76.4,81.7,74.7,104
"CS(=O)(=O)c1ccc(C(=O)Nc2ccc(Cl)c(-c3ccccn3)c2)c(Cl)c1 [vismodegib] + C=CCNC1=C2C[C@@H](C)C[C@H](OC)[C@H](O)[C@@H](C)/C=C(\C)[C@H](OC(N)=O)[C@@H](OC)/C=C\C=C(/C)C(=O)NC(=CC1=O)C2=O [Tanespimycin] (first compound 1 µM, partner dose 0.002 µM)",105,91.7,92.9,119,101,108,131,91.6,96.3,105,91.7,99.9,112,93.1
"NC1(c2ccc(-c3nc4ccn5c(=O)[nH]nc5c4cc3-c3ccccc3)cc2)CCC1 + CCCS(=O)(=O)Nc1ccc(F)c(C(=O)c2c[nH]c3ncc(Cl)cc23)c1F [PLX4720] (first compound 0.4 µM, partner dose 0.08 µM)",81.4,80.6,84.8,75.7,73.6,92.9,83.9,51.4,69.6,91.8,91.1,60.9,111,97.7
"NC1(c2ccc(-c3nc4ccn5c(=O)[nH]nc5c4cc3-c3ccccc3)cc2)CCC1 + CS(=O)(=O)CCNCc1ccc(-c2ccc3ncnc(Nc4ccc(OCc5cccc(F)c5)c(Cl)c4)c3c2)o1 [lapatinib] (first compound 0.4 µM, partner dose 0.8 µM)",93,92.2,86.2,68.8,60.6,86.3,79,70.5,77,82.2,80,54.7,86.9,88
